Measured values taken from the antibiotic and cytotoxicity screens of Wong et al. (2023).
The other results are listed elsewhere or left out.

Experiments:
HSkMC = human skeletal muscle cells; assay: cytotoxicity call (relative viability < 0.9); details: 10 µM
HepG2 = assay: cytotoxicity call (relative viability < 0.9); details: 10 µM
S. aureus RN4220 = assay: growth inhibition call (relative growth <= 0.2); details: 50 µM

C[C@H](CO)N1C[C@H](C)[C@H](CN(C)C(=O)NC2CCCCC2)Oc2ccc(NC(=O)Nc3cccc4ccccc34)cc2CC1=O
inactive: cytotoxicity call (HSkMC) | cytotoxicity call (HepG2) | growth inhibition call (S. aureus RN4220)

O=C(CN1CCOCC1)NCC[C@H]1CC[C@@H](NC(=O)Cc2ccccn2)[C@H](CO)O1
inactive: cytotoxicity call (HSkMC) | cytotoxicity call (HepG2) | growth inhibition call (S. aureus RN4220)

C[C@@H]1CN([C@H](C)CO)C(=O)Cc2cc(NC(=O)Nc3cccc4ccccc34)ccc2O[C@@H]1CN(C)S(=O)(=O)c1ccc(Cl)cc1
inactive: cytotoxicity call (HSkMC) | cytotoxicity call (HepG2) | growth inhibition call (S. aureus RN4220)

C[C@@H]1CN([C@@H](C)CO)C(=O)c2cc(NS(=O)(=O)c3ccccc3)ccc2O[C@@H](C)CCCCO[C@@H]1CN(C)C(=O)Nc1ccc(F)cc1
inactive: cytotoxicity call (HSkMC) | cytotoxicity call (HepG2) | growth inhibition call (S. aureus RN4220)

CN(C)CC(=O)N[C@@H]1CC[C@H](CCNS(=O)(=O)c2ccccc2)O[C@@H]1CO
inactive: cytotoxicity call (HSkMC) | cytotoxicity call (HepG2) | growth inhibition call (S. aureus RN4220)

CCCNC(=O)N(C)C[C@H]1Oc2cc(C#Cc3ccccn3)ccc2S(=O)(=O)N([C@H](C)CO)C[C@@H]1C
inactive: cytotoxicity call (HSkMC) | cytotoxicity call (HepG2) | growth inhibition call (S. aureus RN4220)

COc1ccc(NC(=O)Nc2ccc3c(c2)CC(=O)N([C@H](C)CO)C[C@H](C)[C@H](CN(C)S(=O)(=O)c2cn(C)cn2)O3)cc1
inactive: cytotoxicity call (HSkMC) | cytotoxicity call (HepG2) | growth inhibition call (S. aureus RN4220)

COCC(=O)N(C)C[C@@H]1Oc2cc(C#C[C@@H](C)O)ccc2S(=O)(=O)N([C@@H](C)CO)C[C@@H]1C
inactive: cytotoxicity call (HSkMC) | cytotoxicity call (HepG2) | growth inhibition call (S. aureus RN4220)

C[C@@H]1CCCCO[C@@H](CN(C)S(=O)(=O)c2ccc(F)cc2)[C@@H](C)CN([C@@H](C)CO)C(=O)c2cc(NS(=O)(=O)c3ccc(Cl)cc3)ccc2O1
inactive: cytotoxicity call (HSkMC) | cytotoxicity call (HepG2) | growth inhibition call (S. aureus RN4220)
